Variants at the floor of the assay are shown more often than the library holds them.
B1: tRNA (parent)
chain: CUCUCGGUAGCCAAGUUGGUUUAAGGCGCAAGACUUUAAUUUAUCACUACGAAAUCUUGAGAUCGGGCGUUCGACUCGCCCCCGGGAGAUUUUUUCCUCGAGCAA

Variants of: B1
Experiment: nonsense suppression (GFP-seq) (ratio to wild type); higher = more function; SUP4oc tRNA, yeast GFP reporter sort-seq
In short: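 Yeast were grown in raffinose/galactose medium with 80 mg/L adenine, each strain bearing a genome-integrated ochre-suppressor tRNA variant from a ~3% random-mutation library, a galactose-driven GFP ochre reporter, and RFP. After sorting into GFP/RFP bins, every bin was sequenced on an Illumina platform at phred ≥30. The GFPSEQ value, a measure of nonsense suppression, is the weighted bin median GFP/RFP relative to the unmutated parent tRNA, using each variant's estimated cell share per bin as the weight. Only variants with ≥100 reads and ≥30 cells were included.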

Variant	nonsense suppression
CUCUCGGUAGCCAAGUGGGUUUAAGGCGCCAGACUUUAAUUUAUCACUACGAAAUCUUGAGAUCGGGCGUUCGACUCGCCCCCGGGAGAUUUUUUCCUCGAGCAA [U17G A30C]	≤ 0.026
CUCUCGGUAGCCAAGUGGGUUUAAGGCGCGAGACUUUAAUUUAUCACUACGAAAUCUUGAGAUCGGGCGUUCGACUCGCCCCCGGGAGAUUUUUUCCUCGAGCAA [U17G A30G]	0.397
CUCUCGGUAGCCAAGUGGGUUUAAGGCGCUAGACUUUAAUUUAUCACUACGAAAUCUUGAGAUCGCGCGUUCGACUCGCCCUCGGGAGAUUUUUUCCUCGAGCAA [U17G A30U G66C C82U]	≤ 0.026
CUCUCGGUAGCCAAGUGGGUUUAAGGCGCAGGACUUUAAUUUAUCACUACGAAAUCUUGAGAUCGGGCGUUCGACUCGCCCCCGGGAGAUUUUUUCCUCGAGCAA [U17G A31G]	1.15
CUCUCGGUAGCCAAGUGGGUUUAAGGCGCAAGGCUUUAAUUUAUCACUACGAAAUCUUGUGAUCGGGCGUUCGUCUCGCCCCCGGGAGAUUUUUUCCUCGAGCAA [U17G A33G A60U A74U]	≤ 0.026
CUCUCGGUAGCCAAGUGGGUUUAAGGCGCAAGGCUUUAAUUUAUCACUACGAAAUCUUGAGCUAGGGCGUUCGACUCGCCCCCGGGAGAUUUUUUCCUCGAGCAA [U17G A33G A62C C64A]	≤ 0.026
CUCUCGGUAGCCAAGUGGGUUUAAGGCGCAAGGCUUUAAUUUAUCACUACGAAAUGUUGAGAUCGGGCGUUCGACUCGCCCCCGGGAGAUUUUUUCCUCGAGCAA [U17G A33G C56G]	≤ 0.026
CUCUCGGUAGCCAAGUGGGUUUAAGGCGCAAGUCUUUAAUUUAUCACUACGAAAUCUUAAGAUCGGGCGUUCGACUCGCCCCCGGGAAAUUUUUUCCUCGAGCAA [U17G A33U G59A G88A]	≤ 0.026
CUCUCGGUAGCCAAGUGGGUUUAAGGCGCAAGACUUUAAUUUAUCACUACGAACUCUUGAGAUCGGGCGUUCGACUCGCCCCCGGGAGAUUUUUUCCUCGAGCAA [U17G A54C]	0.64
CUCUCGGUAGCCAAGUGGGUUUAAGGCGCAAGACUUUAAUUUAUCACUACGAAGGCUUGAGAUCGGGCGUUCGACUCGCCCCCGGGAGAUUUUUUCCUCGAGCAA [U17G A54G U55G]	≤ 0.026
CUCUCGGUAGCCAAGUGGGUUUAAGGCGCAAGACUUUAAUUUAUCACUACGAAUUCUUGAGAUCGGGCGUUCGACUCGCCCCCGGGAGAUUUUUUCCUCGAGCAA [U17G A54U]	1.16
CUCUCGGUAGCCAAGUGGGUUUAAGGCGCAAGACUUUAAUUUAUCACUACGAAUUCUUGAGAUGGGGCGUUCGACUCGCCCCCGGGAGUUUUUUUCCUCGAGCAA [U17G A54U C64G A89U]	≤ 0.026
CUCUCGGUAGCCAAGUGGGUUUAAGGCGCAAGACUUUAAUUUAUCACUACGAAAUCUUGCGAUCGGGCGUUCGACUCGCCACCGGGUGAUUUUUUCCUCGAGCAA [U17G A60C C81A A87U]	≤ 0.026
CUCUCGGUAGCCAAGUGGGUUUAAGGCGCAAGACUUUAAUUUAUCACUACGAAAUCUUGCGAUCGCGCGUUCGACUAGCCCCCGGGAGAUUUUUUCCUCGAGCAA [U17G A60C G66C C77A]	≤ 0.026
CUCUCGGUAGCCAAGUGGGUUUAAGGCGCAAGACUUUAAUUUAUCACUACGAAAUCUUGGGAGCGGGCAUUCGACUCGCCCCCGGGAGAUUUUUUCCUCGAGCAA [U17G A60G U63G G69A]	≤ 0.026
CUCUCGGUAGCCAAGUGGGUUUAAGGCGCAAGACUUUAAUUUAUCACUACGAAAUCUUGAGGUCGGGCGUUCGACUCGCCCCCGGGAGAUUUUUUCCUCGAGCAA [U17G A62G]	≤ 0.026
CUCUCGGUAGCCAAGUGGGUUUAAGGCGCAAGACUUUAAUUUAUCACUACGAAAUGUUGAGAUCGGGCGUUCGACUCGCCCCCGGGAGAUUUUUUCCUCGAGCAA [U17G C56G]	≤ 0.026
CUCUCGGUAGCCAAGUGGGUUUAAGGCGCAAGACUUUAAUUUAUCACUACGAAAUGUUGAGAUCGGGCGUUCGACUCGCCCCGGGGAGAUUUUUUCCUCGAGCAA [U17G C56G C83G]	≤ 0.026
CUCUCGGUAGCCAAGUGGGUUUAAGGCGCAAGACUUUAAUUUAUCACUACGAAAUCUUGAGAUCGGGAUUUCGACUCGCCCCCGGGAGAUUUUUUCCUCGAGCAA [U17G C68A G69U]	≤ 0.026
CUCUCGGUAGCCAAGUGGGUUUAAGGCGCAAGACUUUAAUUUAUCACUACGAAAUCUUGAGAUCGGGCGUUCGACUCGGCCCCGGGAGAUUUUUUCCUCGAGCAA [U17G C79G]	≤ 0.026
CUCUCGGUAGCCAAGUGGGUUUAAGGCGCAAGACUUUAAUUUAUCACUACGAAAUCUUGAGAUCGGGCGUUCGACUCGCGCCCGGGAGAUUUUUUCCUCGAGCAA [U17G C80G]	≤ 0.026
CUCUCGGUAGCCAAGUGGGUUUAAGGCGCAAGACUUUAAUUUAUCACUACGAAAUCUUGAGAUCGGGCGUUCGACUCGCCACCGGGAGCUUUUUUCCUCGAGCAA [U17G C81A A89C]	≤ 0.026
CUCUCGGUAGCCAAGUGGGUUUAAGGCGCAAGACUUUAAUUUAUCACUACGAAAUCUUGAGAUCGGGCGUUCGACUCGCCCACGGGAGAUUUUUUCCUCGAGCAA [U17G C82A]	≤ 0.026
CUCUCGGUAGCCAAGUGGGUUUAAGGCGCAAGACUUUAAUUUAUCACUACGAAAUCUUGAGAUCGGGCGUUCGACUCGCCCACGAGAGAUUUUUUCCUCGAGCAA [U17G C82A G85A]	≤ 0.026
CUCUCGGUAGCCAAGUGGAUUUAAGGCGCAAGACUUUAAUUUAUCACUACGAAAUCUUGAGAUCGUGCGUUCGACUCGCCCCCGGGAGAUUUUUUCCUCGAGCAA [U17G G19A G66U]	≤ 0.026
CUCUCGGUAGCCAAGUGGCCUUAAGGCGCAAGUCUUUAAUUUAUCACUACGAAAUCUUGAGAUCGGGCGUUCGACUCGCCCCCGGGAGAUUUUUUCCUCGAGCAA [U17G G19C U20C A33U]	≤ 0.026
CUCUCGGUAGCCAAGUGGCUUUAAGGCGCAAGACUUUAAUUUAUCACUACGAAAACUUGAGAUCGGGCGUUCGACUCGCCACCGCGAGAUUUUUUCCUCGAGCAA [U17G G19C U55A C81A G85C]	≤ 0.026

— the RNAGym collection of RNA variant scans (doi:10.1101/gad.245936.114)
